Reference: PubChem BioAssay AID588591 (National Center for Advancing Translational Sciences (NCATS), 2011)
Screen size: about 390,000 compounds; about 4,700 (1.2%) were called active. Inconclusive means that the source gave no clear call. Such entries were picked first, then a sample of the others. Calls follow the shape of the dose curve; as a rule, active = well fitted inhibition curve with a large enough effect; inconclusive = small, poorly fitted or top-dose-only effect, or another doubt; inactive = no such curve, though single readings can be large or run the other way. Potencies beside an inconclusive call are fits to weak or partial responses and may not hold up.

target: DNA polymerase eta (Homo sapiens) (UniProt Q9Y253); assay: qHTS for Inhibitors of Polymerase Eta; settings: recombinant Pol eta, fluorescent DNA replication assay; series mostly up to 114 µM; activity change, negative = inhibition: at the top concentration
Sequence of UniProt Q9Y253 (Q9Y253 whole entry, looked up): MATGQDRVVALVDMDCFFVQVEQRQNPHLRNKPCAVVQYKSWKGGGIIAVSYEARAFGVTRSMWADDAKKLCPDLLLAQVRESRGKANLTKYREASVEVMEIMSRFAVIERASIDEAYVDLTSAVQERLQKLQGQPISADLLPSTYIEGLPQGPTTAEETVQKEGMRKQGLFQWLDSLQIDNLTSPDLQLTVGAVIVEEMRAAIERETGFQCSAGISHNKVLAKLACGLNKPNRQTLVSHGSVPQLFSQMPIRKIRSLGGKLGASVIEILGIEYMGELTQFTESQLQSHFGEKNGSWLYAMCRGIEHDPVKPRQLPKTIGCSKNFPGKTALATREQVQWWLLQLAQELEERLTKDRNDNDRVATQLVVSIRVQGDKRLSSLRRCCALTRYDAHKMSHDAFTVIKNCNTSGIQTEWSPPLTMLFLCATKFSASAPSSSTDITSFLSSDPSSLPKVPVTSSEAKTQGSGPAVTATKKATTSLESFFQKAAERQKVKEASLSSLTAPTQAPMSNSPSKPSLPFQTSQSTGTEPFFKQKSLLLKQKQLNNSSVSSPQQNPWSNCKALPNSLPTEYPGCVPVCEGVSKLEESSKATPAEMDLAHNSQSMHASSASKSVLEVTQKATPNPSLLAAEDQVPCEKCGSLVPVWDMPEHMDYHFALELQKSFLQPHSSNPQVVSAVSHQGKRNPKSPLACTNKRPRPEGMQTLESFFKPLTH
How it was run: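 Fluorescent replication assay: 50 nM final substrate added after a 15 min room-temperature compound preincubation with 10 nM enzyme. Signal taken at 0 min and again at 10 min.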
% is scaled to controls: 0 for no effect and ±100 for the full control effect; potency is read from the fitted curve at half-maximal effect; tags tell the direction and shape of the fitted curve.

| Compound | Potency | activity change, negative = inhibition |
| --- | --- | --- |
| O=C(Oc1coc(CSc2nnc(NC(=O)c3cccs3)s2)cc1=O)c1ccccc1 | inconclusive: 11.2 µM [inhibitor, partial curve, poor fit] |  |
| CC(=O)c1cccc(NC(=O)CN(c2cc(C)cc(C)c2)S(=O)(=O)c2c(C)noc2C)c1 |  | inactive: -12.2% |
| COc1ccc(-c2nn3c(-c4ccccc4)nnc3s2)cc1 | inconclusive: 15.8 µM [inhibitor, single point] |  |
| C/C(=N\Nc1ccc(Cl)c(C(=O)O)c1)c1cccs1 | active: 17.8 µM |  |
| Cc1ccc(-n2c(SCC(=O)NCc3ccco3)nc3c([nH]c4ccccc43)c2=O)cc1 |  | inactive: 1.7% |
| O=C(COC(=O)c1ccccc1Cl)NCc1ccco1 | inconclusive: 17.8 µM [inhibitor, partial curve, poor fit] |  |
| O=C(OCC(=O)c1ccc[nH]1)c1ccc(C(F)(F)F)cc1 | inconclusive: 0.631 µM [inhibitor, full curve, poor fit] |  |
| O=c1nc2s/c(=C\c3ccc(-c4ccccc4[N+](=O)[O-])o3)c(=O)n2nc1-c1ccccc1 | inconclusive: 89.1 µM [inhibitor, partial curve, poor fit] |  |
| COC(=O)c1sc2nc(C)nc(SCC(=O)C(C)(C)C)c2c1C | inconclusive: 11.2 µM [inhibitor, full curve, poor fit] |  |
| CC1CCN(C(=O)c2ccc(NC3=C(Cl)C(=O)N(Cc4ccccc4)C3=O)cc2)CC1 | inconclusive: 79.4 µM [inhibitor, partial curve, poor fit] |  |
| COc1cccc(CCc2nnc(CCC(=O)NCCC3CCCCO3)o2)c1 (stereo unspecified) | inconclusive: 56.2 µM [inhibitor, partial curve, poor fit] |  |
| COc1ccc(NC(=O)CCC(=O)c2cccs2)cc1Cl |  | inactive: -13.1% |
| CCCOc1ccc(C(=O)N/N=C/c2ccc(-c3ccc(S(=O)(=O)Nc4ncccn4)cc3)o2)cc1 | active: 20 µM |  |
| N[C@@H](Cc1cc(I)c(Oc2cc(I)c(O)c(I)c2)c(I)c1)C(=O)O | inconclusive: 56.2 µM [inhibitor, partial curve, poor fit] |  |
| Cc1cccc(NC(=O)CN(C)S(=O)(=O)c2ccc(-c3ccc(=O)[nH]n3)s2)c1C | inconclusive: 28.2 µM [inhibitor, partial curve, poor fit] |  |
| CC(/C=C/c1ccccc1F)=N\NC(=O)c1ccccc1 |  | inactive: -17.6% |
| CCCN(CCC)C(=O)C(Cc1ccccc1)NS(=O)(=O)c1ccc2c(c1)c(=O)n(C)c(=O)n2C (stereo unspecified) |  | inactive: -4.81% |
| CC1Cc2ccccc2N1S(=O)(=O)c1ccc(Cl)nc1 (stereo unspecified) | inconclusive: 89.1 µM [inhibitor, partial curve, poor fit] |  |
| C#CCOCCOCCOCCNc1nc(N2CCN(C(=O)[C@H](CCC(=O)O)n3cc(C(N)[C@H](C)CC)nn3)CC2)nc(N2CCN(C(=O)[C@H](CCC(=O)O)n3cc(C(N)[C@H](C)CC)nn3)CC2)n1 (stereo partly specified) | active: 25.1 µM |  |
| CCc1cc(-c2[nH]ncc2-c2ccc([N+](=O)[O-])cc2)c(O)cc1OC | inconclusive: 89.1 µM [inhibitor, partial curve, poor fit] |  |
| Cc1cccc(-c2noc(CN(C(=O)c3ccc(Br)o3)C(C)C)n2)c1 | inconclusive: 39.8 µM [inhibitor, partial curve, poor fit] |  |
| O=C(Cn1cnnn1)OCC(=O)c1ccc(Cl)s1 | active: 14.1 µM |  |

| Compound | Potency | activity change, negative = inhibition |
| --- | --- | --- |
| CC1=NN(c2ccc(C(=O)O)c(N)c2)C(=O)C1 | active: 22.4 µM |  |
| O=C(O)CCc1ccc(-c2cccs2)n1CCC(=O)O | active: 10 µM |  |
| O=C(NCCC1=CCCCC1)C1CCN(S(=O)(=O)c2cccc3nonc23)CC1 | inconclusive: 25.1 µM [inhibitor, partial curve] |  |
| N#Cc1ccsc1NC(=O)COC(=O)CCS(=O)(=O)c1ccccc1 | active: 31.6 µM |  |
| O=c1cc(N2CCCCC2)[nH]c(=O)n1C1CCCCC1 |  | inactive: -9.96% |
| COc1ccc(-c2cc(C(F)(F)F)c3c(n2)sc2c(O)cc(=O)[nH]c23)c(OC)c1 | active: 12.6 µM |  |
| Cc1ccc(C(=O)NC(=S)Nc2ccc(NC(=O)c3cccs3)cc2)cc1[N+](=O)[O-] | inconclusive: 15.8 µM [inhibitor, partial curve, poor fit] |  |
| O=C(Nc1ccccc1Cl)c1ccc([N+](=O)[O-])o1 |  | inactive: -10.1% |
| COc1ccc(/C=C/C(=O)O)cc1S(=O)(=O)N1CCCc2ccccc21 | active: 44.7 µM |  |
| Cc1ccc(NC(=O)Cn2cc(S(=O)(=O)Cc3ccc(F)cc3)c3ccccc32)cc1Cl | active: 17.8 µM |  |
| O=C(Nc1ccccc1)c1nc[nH]c1C(=O)O |  | inactive: -15.4% |
| COc1ccc(C2(CNC(=O)/C=C/c3ccco3)CCCC2)cc1OC | inconclusive: 89.1 µM [inhibitor, partial curve] |  |
| Cn1c(N2CCN(C(=O)NC34CC5CC(CC(C5)C3)C4)CC2)nc2ccccc21 | inconclusive: 25.1 µM [inhibitor, single point] |  |
| O=C(CCc1ccccc1)NNC(=S)NC(=O)c1ccc(Cl)cc1 |  | inactive: 11.5% |
| COC(=O)c1cc(OC)c(OC)cc1NC(=O)c1ccccc1 | inconclusive: 39.8 µM [inhibitor, partial curve, poor fit] |  |
| CCC1=C(OC(=O)N(CC)CC)N2C(=O)OC(=NCC(=O)OC)[C@]2(C)[C@H]2C1=CC[C@H]1C(=O)N(C)C(=O)[C@H]12 |  | inactive: -14.3% |
| CCn1c(COc2ccc(C)cc2)nnc1SCC(=O)Nc1ccc2c(c1)OCCO2 | inconclusive: 89.1 µM [inhibitor, partial curve, poor fit] |  |
| COc1cc(/C=C2/C(=N)N3N=C(C(C)C)SC3=NC2=O)ccc1OS(=O)(=O)c1ccccc1 | inconclusive: 89.1 µM [inhibitor, partial curve, poor fit] |  |
| COc1cccc(/C=N/NC(=O)c2nc(-c3ccccc3)cc(-c3ccccc3)n2)c1 | inconclusive: 6.31 µM [inhibitor, partial curve, poor fit] |  |
| Cn1c(N)c(C(=O)COC(=O)c2cccc(S(=O)(=O)N3CCOCC3)c2)c(=O)n(C)c1=O | inconclusive: 31.6 µM [inhibitor, partial curve, poor fit] |  |
| Cc1cc(C)n2nc(C(=O)N3CCN(Cc4ccc5c(c4)OCO5)CC3)nc2n1 | inconclusive: 79.4 µM [inhibitor, partial curve, poor fit] |  |
| CCN(CC)CCn1c2c(c(SCC(=O)Nc3nc4ccc(C)cc4s3)nc1=O)CCC2 | inconclusive: 100 µM [inhibitor, partial curve, poor fit] |  |

| Compound | Potency | activity change, negative = inhibition |
| --- | --- | --- |
| CSc1nc(SCC(=O)NCc2ccco2)c2c3c(sc2n1)CN(C)CC3 | inconclusive: 31.6 µM [inhibitor, partial curve, poor fit] |  |
| CCOc1ccccc1N1CCN(C(=O)c2ccccc2SCC(=O)N2CCCC2)CC1 | inconclusive: 79.4 µM [inhibitor, partial curve, poor fit] |  |
| O=C(O)C1C2C=CC(CC2)C1C(=O)O (stereo unspecified) | active: 11.2 µM |  |
| O=c1ccc2cc3c4c(c2o1)CCCN4CCC3 | inconclusive: 35.5 µM [inhibitor, single point] |  |
| Cc1ccc(NC(=O)/C=C\C(=O)N(c2ccc(C(C)C)cc2)C(C(=O)NCc2ccco2)c2ccc(F)cc2)cc1 (stereo unspecified) | inconclusive: 0.224 µM [inhibitor, partial curve, poor fit] |  |
| Cc1ccc(C(=O)NNC(=O)Cc2cccs2)cc1 | inconclusive: 35.5 µM [inhibitor, partial curve, poor fit] |  |
| O=S(=O)(O)c1cccc(N=Nc2c(O)ccc3ccccc23)c1 | inconclusive: 44.7 µM [inhibitor, partial curve, poor fit] |  |
| CCOC(=O)c1c(NC(=O)C2c3ccccc3Oc3ccccc32)sc(C)c1CC |  | inactive: -9.66% |
| O=C(CCCN1C(=O)/C(=C\c2ccco2)SC1=S)Nc1ccc(O)cc1C(=O)O | active: 4.47 µM |  |
| CSc1ccc(-c2nc3cccc(C)n3c2Nc2ccc(Cl)cc2)cc1 |  | inactive: -16.4% |
| O=C(/C=C/c1ccccc1)N1c2ccccc2Sc2ccc(C(F)(F)F)cc21 | inconclusive: 89.1 µM [inhibitor, partial curve, poor fit] |  |
| COc1ccccc1CNC(=O)CN1N=C(c2ccccc2)CCC1=O |  | inactive: -14.7% |
| Cc1ccc(NC(=O)Cn2nc(Cc3ccncc3)c3ccccc3c2=O)c(Cl)c1 | inconclusive: 100 µM [inhibitor, partial curve, poor fit] |  |
| CCOC(=O)C1=C(CNCc2ccccc2Cl)NC(=O)NC1c1cccc([N+](=O)[O-])c1 (stereo unspecified) |  | inactive: -26.1% |
| CCOC(=O)Cc1nn2c(=O)cc(C)nc2s1 | inconclusive: 12.6 µM [inhibitor, partial curve] |  |
| NC(=O)COC(=O)c1cc(-c2ccco2)nc2ccccc12 | active: 44.7 µM |  |
| COC(=O)c1sc(-c2ccc(C(C)(C)C)cc2)cc1NC(=O)/C=C/C(=O)O | active: 79.4 µM |  |
| CSC1=N/C(=C\c2ccc(Br)o2)C(=O)S1 | active: 8.91 µM |  |
| CC(=O)C1=C(c2ccccc2)NC(=O)NC1c1ccc(O)c(O)c1 (stereo unspecified) | inconclusive: 44.7 µM [inhibitor, partial curve] |  |
| COc1cc(C)ccc1OCCOCCOc1ccccc1Br | inconclusive: 79.4 µM [inhibitor, partial curve, poor fit] |  |
| CC1CCN(C(=O)COC(=O)c2cc(Cl)c3c(c2)OCO3)CC1 | inconclusive: 25.1 µM [inhibitor, partial curve, poor fit] |  |
| COc1ccc(-c2nc3n(n2)C(c2ccc(OC)c(OC)c2)C(C(=O)Nc2cccnc2)=C(C)N3)cc1 (stereo unspecified) | active: 50.1 µM |  |
